Laboratory results as given in article PMC4336329 (PLoS ONE, 2015).
Among all 310,000 compounds or so, about 14,000 (4.5%) showed an effect of 50% or more. The effect is printed as a negative number. The list shows a part of the results.

biological target: human ether-à-go-go-related gene (hERG) potassium channel (human, UniProt Q12809); experiment: primary screen, population patch clamp on CHO cells stably expressing hERG
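Note: peak tail current of the secondary pulse compared with the same well before compound.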

human ether-à-go-go-related gene (hERG) potassium channel, sequence (Q12809 whole entry, looked up): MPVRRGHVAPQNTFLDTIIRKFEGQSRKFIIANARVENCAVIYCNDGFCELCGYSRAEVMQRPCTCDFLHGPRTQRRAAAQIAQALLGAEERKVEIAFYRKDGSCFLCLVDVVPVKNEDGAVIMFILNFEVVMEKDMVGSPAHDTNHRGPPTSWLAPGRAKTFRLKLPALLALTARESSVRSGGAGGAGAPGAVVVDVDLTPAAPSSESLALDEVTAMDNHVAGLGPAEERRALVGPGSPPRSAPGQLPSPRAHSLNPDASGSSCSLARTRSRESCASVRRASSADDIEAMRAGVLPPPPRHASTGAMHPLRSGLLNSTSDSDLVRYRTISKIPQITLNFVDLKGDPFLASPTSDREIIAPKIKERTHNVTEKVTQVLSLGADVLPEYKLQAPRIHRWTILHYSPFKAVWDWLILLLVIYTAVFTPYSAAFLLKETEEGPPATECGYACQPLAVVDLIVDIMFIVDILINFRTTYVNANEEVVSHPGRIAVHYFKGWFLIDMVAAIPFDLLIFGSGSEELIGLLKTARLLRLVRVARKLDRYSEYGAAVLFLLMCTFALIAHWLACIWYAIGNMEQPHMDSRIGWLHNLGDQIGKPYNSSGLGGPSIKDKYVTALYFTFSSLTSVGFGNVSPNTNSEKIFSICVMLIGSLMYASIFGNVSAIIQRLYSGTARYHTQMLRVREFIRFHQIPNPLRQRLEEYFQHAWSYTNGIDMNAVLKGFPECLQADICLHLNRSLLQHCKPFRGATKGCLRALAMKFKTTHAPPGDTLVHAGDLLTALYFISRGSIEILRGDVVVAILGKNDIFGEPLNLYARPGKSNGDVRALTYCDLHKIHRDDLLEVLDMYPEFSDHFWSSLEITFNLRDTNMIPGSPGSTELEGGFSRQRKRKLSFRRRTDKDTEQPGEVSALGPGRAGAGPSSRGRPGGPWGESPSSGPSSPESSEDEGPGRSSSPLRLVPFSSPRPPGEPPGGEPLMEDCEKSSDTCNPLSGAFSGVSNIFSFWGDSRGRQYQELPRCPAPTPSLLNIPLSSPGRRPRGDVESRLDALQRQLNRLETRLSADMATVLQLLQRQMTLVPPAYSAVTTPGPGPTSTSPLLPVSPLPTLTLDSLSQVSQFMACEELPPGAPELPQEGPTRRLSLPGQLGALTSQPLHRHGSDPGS

Compound	hERG current change (%, negative = inhibition) at 10uM
CCC(C)(C)NC(=O)CN(C(=O)c1ccc(N2CCCC2)nc1)c1ccc(F)cc1	12.8%
CC(C)(C)NC(=O)COC(=O)CCC(=O)c1cccs1	4.57%
CN(CCc1ccccc1)c1ccc([N+](=O)[O-])cn1	2.08%
COc1cccc(CC2(CO)CCCN(Cc3cn[nH]c3-c3cc(C)ccc3C)C2)c1 (stereo not shown)	-59.2%
CC(C)c1cc(C(=O)Nc2cc(Cl)ccc2O)no1	-12.5%
CCC(C)n1ncn(-c2ccc(N3CCN(c4ccc(O)cc4)CC3)cc2)c1=O (stereo not shown)	0.0619%
NS(=O)(=O)c1ccc(CCNC(=O)C2CCCN2S(=O)(=O)c2cccc3nsnc23)cc1 (stereo not shown)	18.2%
CC(C)n1c(SCC(=O)NC2CC2)nnc1-c1ccco1	6.51%
O=C(Nc1ncccc1Cl)c1cc2ccccc2o1	11.5%
Nc1n[nH]c2cc(=O)n(-c3ccc(Cl)cc3)nc12	20%
CNC(=O)CSc1nc2nn(-c3ccccc3)c(=O)c-2c2n1CCCCC2	-37.2%
Cc1onc(-c2ccccc2)c1C(=O)NCC(O)c1ccccc1 (stereo not shown)	5%
O=C(NCc1ccc(C(=O)N2CCC3(CC2)OCCO3)cc1)c1cccc(Br)c1	-2.3%
O=C(NC1CC1)c1ccc2c(Cl)c3c(nc2c1)CCCC3	-63.7%
O=C1N/C(=N\N=C\c2cccs2)SC1Cc1ccc(Cl)cc1Cl (stereo not shown)	5.84%
Cl.NCCc1nnc(SCc2c(Cl)cccc2Cl)o1	5.26%
COCCNC(=S)N1CCN(S(=O)(=O)c2ccc(Cl)s2)CC1	-5.63%
O=C(O)C1Cc2ccccc2CN1C(=O)COc1ccc(Br)cc1 (stereo not shown)	28%
COC(=O)c1cc2sc(Cl)cc2n1CC(=O)N1CCCc2ccccc21	-1.75%
Cc1csc(NC(=O)C2CCCN2C(=O)OCC(C)C)n1 (stereo not shown)	8.73%
O=C(Oc1ccccc1C(=O)N1CCOCC1)c1cccc(Br)c1	-7.73%
O=C(NCCCN1CCOCC1)c1ccc(CS(=O)(=O)Cc2ccccc2Cl)o1	6.76%
Cc1ccc(OCCNC(=O)c2ccc(NC(=O)CC3SC(N4CCCC4)=NC3=O)cc2)cc1 (stereo not shown)	-24.1%
CCCn1c(SCC(=O)Nc2ccc(OC)cc2[N+](=O)[O-])n[nH]c1=O	-2.34%
CC1CCCN(C(=O)c2sc3cc([N+](=O)[O-])ccc3c2Cl)C1 (stereo not shown)	-36.5%
